Results reported in PubChem BioAssay (Tox21).
This list was built around the results that the source calls inconclusive (neither active nor inactive); the mix of calls is not that of the screen. For some assays here: No potency is given beside an inconclusive call; the fits are too rough. Activity calls are given as the source filed them. Unless noted, calls follow the shape of the dose curve; as a rule, active = well fitted curve in the direction sought with a large enough effect in the repeat runs; inconclusive = weak or mixed curves; inactive = no such curve, though single readings can be large; an effect the other way counts as inactive or inconclusive.

Columns and labels:
[1] = molecular target: Peroxisome proliferator-activated receptor gamma (Homo sapiens) (UniProt P37231); assay: qHTS assay to identify small molecule antagonists of the peroxisome proliferator-activated receptor gamma (PPARg) signaling pathway (AID 743191; calls by dose curve; also: nearly all actives have a fitted effect of over 30% in size); details: HEK293H PPARg-UAS-bla, beta-lactamase ratio, antagonist, 17 h; ratio activity, negative = inhibition: at 62.6 µM (top of the series) unless noted
Sequence of UniProt P37231 (P37231 whole entry, looked up): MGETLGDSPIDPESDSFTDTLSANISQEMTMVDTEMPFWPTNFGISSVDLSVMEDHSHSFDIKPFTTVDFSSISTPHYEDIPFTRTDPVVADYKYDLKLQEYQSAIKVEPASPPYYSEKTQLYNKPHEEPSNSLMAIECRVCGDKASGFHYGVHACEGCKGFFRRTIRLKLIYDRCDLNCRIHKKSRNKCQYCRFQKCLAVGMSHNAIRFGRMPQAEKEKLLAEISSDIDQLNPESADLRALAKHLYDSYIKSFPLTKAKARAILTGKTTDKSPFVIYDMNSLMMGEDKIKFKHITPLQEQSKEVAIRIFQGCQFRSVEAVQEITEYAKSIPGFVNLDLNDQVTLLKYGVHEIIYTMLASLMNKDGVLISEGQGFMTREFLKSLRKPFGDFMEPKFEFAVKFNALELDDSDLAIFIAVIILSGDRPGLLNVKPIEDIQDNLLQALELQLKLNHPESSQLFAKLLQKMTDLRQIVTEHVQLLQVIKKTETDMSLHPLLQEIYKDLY
Outline: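 GeneBLAzer PPARg UAS-bla HEK293H cells carrying a UAS-driven beta-lactamase reporter were plated at 3000 cells/well, preincubated 5 h at 37C, then given compound for 17 h at 37C; LiveBLAzer B/G FRET substrate was read after 1 h at room temperature.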

[2] = qHTS assay to identify small molecule antagonists of the peroxisome proliferator-activated receptor gamma (PPARg) signaling pathway - cell viability counter screen (AID 743194); details: PPARg-bla HEK293H viability, CellTiter-Glo luminescence, 17 h; Potency: co-treated with 50 nM rosiglitazone unless noted; activity change, negative = cytotoxicity: at 62.6 µM (top of the series), co-treated with 50 nM rosiglitazone unless noted; also: nearly all actives have a fitted effect of over 55% in size
Outline: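 PPARg-UAS-bla HEK293H cells were plated, rested 5 h at 37 C, then treated with compounds plus rosiglitazone (50 nM final) for 17 h at 37 C; viability was then read by CellTiter-Glo luminescence after 30 min at room temperature.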

[3] = qHTS assay for small molecule agonists of the antioxidant response element (ARE) signaling pathway (AID 743202; active = well fitted activation curve with a large enough effect in the signal ratio in the repeat runs, not every such curve was filed as active; inconclusive = weak or mixed curves, or effect the other way; inactive = no such curve, though single readings can be large or run the other way; the % refers to the signal ratio); details: HepG2 ARE-bla reporter, beta-lactamase FRET, 16 h; activation: at 73.3 µM (top of the series) unless noted
Outline: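 Compounds delivered in DMSO to ARE-bla HepG2 cells (2,000 cells/well, pre-incubated 5 h) and left 16 h at 37 C. LiveBLAzer B/G FRET substrate then added for 2 h at RT before fluorescence reading.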

[4] = qHTS assay for small molecule activators of the heat shock response signaling pathway - cell viability counter screen (AID 743209); details: HSE-bla HeLa viability, CellTiter-Glo luminescence, 5 h; activity change, negative = cytotoxicity: at 62.6 µM (top of the series) unless noted; also: nearly all actives have a fitted effect of over 50% in size
Outline: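 HSE-bla HeLa cells plated overnight, then exposed to Tox21 compounds (23 nL in DMSO) for 5 h at 37 C. After the bla reporter read, CellTiter-Glo was added in the same wells and luminescence read after 30 min at room temperature.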

[5] = qHTS assay for small molecule activators of the heat shock response signaling pathway (AID 743210; active = well fitted activation curve with a large enough effect in the signal ratio in the repeat runs, with a control signal flat, not every such curve was filed as active; inconclusive = weak or mixed curves; the % refers to the signal ratio); details: HeLa HSE-bla reporter, beta-lactamase ratio, 5 h; activation: at 62.6 µM (top of the series)
Outline: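 Reporter gene assay: HeLa cells stably bearing an HSE-bla construct, compound treatment 5 h at 37 C, LiveBLAzer substrate 2.5 h at RT, fluorescence intensity.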

[6] = molecular target: Peroxisome proliferator-activated receptor delta (Homo sapiens) (UniProt Q03181); assay: qHTS assay to identify small molecule agonists of the peroxisome proliferator-activated receptor delta (PPARd) signaling pathway (AID 743212; calls by dose curve); details: HEK293H PPARd-UAS-bla, beta-lactamase FRET ratio, 17 h; activation: at 62.6 µM (top of the series) unless noted
Sequence of UniProt Q03181 (Q03181 whole entry, looked up): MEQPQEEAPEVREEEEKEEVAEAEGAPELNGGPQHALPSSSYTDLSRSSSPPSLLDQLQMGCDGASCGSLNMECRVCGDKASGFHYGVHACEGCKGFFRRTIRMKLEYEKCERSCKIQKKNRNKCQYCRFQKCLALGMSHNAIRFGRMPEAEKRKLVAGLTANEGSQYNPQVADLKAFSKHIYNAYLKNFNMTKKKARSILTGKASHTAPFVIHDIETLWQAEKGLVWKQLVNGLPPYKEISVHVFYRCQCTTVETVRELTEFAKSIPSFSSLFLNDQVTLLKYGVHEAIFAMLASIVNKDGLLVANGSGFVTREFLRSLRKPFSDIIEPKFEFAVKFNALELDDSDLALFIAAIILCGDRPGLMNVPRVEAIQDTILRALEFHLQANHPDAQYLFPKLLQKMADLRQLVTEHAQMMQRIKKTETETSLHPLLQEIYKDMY
Outline: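 A PPARd-bla HEK293H line with beta-lactamase under an Upstream Activator Sequence is treated with compounds at 37 C. Substrate loading for 2 h at room temperature precedes the fluorescence measurement.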

[7] = qHTS assay to identify small molecule antagonists of the peroxisome proliferator-activated receptor delta (PPARd) signaling pathway - cell viability counter screen (AID 743213); details: PPARd-bla HEK293H viability, CellTiter-Glo luminescence, 17 h; viability change, negative = cytotoxic: at 62 µM (top of the series) unless noted; also: nearly all actives have a fitted effect of over 50% in size
Outline: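 Cytotoxicity counter screen: CellTiter-Glo luminescence read 30 min after addition, in the same wells as the reporter assay. There, PPARd UAS-bla HEK293H cells (3000/well) were treated 17 h at 37 C with compound and 300 nM L165041.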

[8] = molecular target: Peroxisome proliferator-activated receptor delta (Homo sapiens) (UniProt Q03181); assay: qHTS assay to identify small molecule antagonists of the peroxisome proliferator-activated receptor delta (PPARd) signaling pathway (AID 743215; active = well fitted inhibition curve with a large enough effect in the signal ratio in the repeat runs, not every such curve was filed as active; inconclusive = weak or mixed curves, or effect the other way; inactive = no such curve, though single readings can be large or run the other way; the % refers to the signal ratio;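 also: cells stimulated with agonist L165041 at 300 nM final during compound exposure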); details: HEK293H PPARd-UAS-bla, beta-lactamase FRET ratio, antagonist, 17 h; ratio activity, negative = inhibition: at 62 µM (top of the series) unless noted
Outline: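 PPARd-bla HEK293H cells (UAS-bla reporter) preincubated 5 h, then given compound plus 300 nM final L165041 agonist for 17 h at 37 C. Beta-lactamase activity read by LiveBLAzer B/G FRET substrate fluorescence after 2 h at room temperature.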

[9] = molecular target: Bile acid receptor (Homo sapiens) (UniProt Q96RI1); assay: qHTS assay to identify small molecule antagonists of the farnesoid-X-receptor (FXR) signaling pathway (AID 743217; active = well fitted inhibition curve with a large enough effect in the signal ratio in the repeat runs, not every such curve was filed as active; inconclusive = weak or mixed curves, or effect the other way; inactive = no such curve, though single readings can be large or run the other way; the % refers to the signal ratio); details: HEK293T FXR-UAS-bla, beta-lactamase ratio, CDCA-stimulated, 16 h; activity change, negative = inhibition: at 62.6 µM (top of the series) unless noted
Sequence of UniProt Q96RI1 (Q96RI1 whole entry, looked up): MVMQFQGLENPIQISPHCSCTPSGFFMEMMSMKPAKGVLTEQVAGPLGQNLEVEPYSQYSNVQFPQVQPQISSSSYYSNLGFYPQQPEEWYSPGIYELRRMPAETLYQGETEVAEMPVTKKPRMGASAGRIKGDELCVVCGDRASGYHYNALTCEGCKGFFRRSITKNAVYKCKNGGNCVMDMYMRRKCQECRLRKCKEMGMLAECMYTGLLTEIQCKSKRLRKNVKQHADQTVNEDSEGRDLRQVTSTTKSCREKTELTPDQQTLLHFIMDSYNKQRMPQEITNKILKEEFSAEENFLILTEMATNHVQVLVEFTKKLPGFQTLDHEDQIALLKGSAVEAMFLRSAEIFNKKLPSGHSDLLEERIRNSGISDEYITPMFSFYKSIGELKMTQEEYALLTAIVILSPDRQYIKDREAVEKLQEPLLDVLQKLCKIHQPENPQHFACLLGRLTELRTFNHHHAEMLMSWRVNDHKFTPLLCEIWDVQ
Outline: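 FXR-UAS-bla HEK 293T cells (beta-lactamase reporter) given compound plus chenodeoxycholic acid (50 uM final), 16 h at 37C. LiveBLAzer B/G FRET substrate added for 2 h at room temperature; fluorescence read.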

[10] = qHTS assay to identify small molecule agonists of the farnesoid-X-receptor (FXR) signaling pathway - cell viability counter screen (AID 743218); details: FXR-bla HEK293T viability, CellTiter-Glo luminescence, 16 h; viability change, negative = cytotoxic: at 62.6 µM (top of the series) unless noted; also: nearly all actives have a fitted effect of over 45% in size
Outline: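 FXR-UAS-bla HEK 293T cells exposed to compounds for 16 h at 37C. Cytotoxicity read in the same wells by CellTiter-Glo luminescence after 30 min at room temperature, following the beta-lactamase FRET read.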

[11] = molecular target: Bile acid receptor (Homo sapiens) (UniProt Q96RI1); assay: qHTS assay to identify small molecule agonists of the farnesoid-X-receptor (FXR) signaling pathway (AID 743220; active = well fitted activation curve with a large enough effect in the signal ratio in the repeat runs, not every such curve was filed as active; inconclusive = weak or mixed curves, or effect the other way; the % refers to the signal ratio); details: HEK293T FXR-UAS-bla, beta-lactamase FRET ratio, 16 h; activation: at 62.6 µM (top of the series) unless noted
Outline: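 Beta-lactamase reporter under UAS control in GeneBLAzer FXR HEK 293T cells (5000/well) measured with LiveBLAzer FRET substrate after 2 h at room temperature. Compound exposure lasted 16 h at 37C.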

[12] = molecular target: Vitamin D3 receptor (Homo sapiens) (UniProt P11473); assay: qHTS assay to identify small molecule agonists of the vitamin D receptor (VDR) signaling pathway (AID 743222; calls by dose curve); details: HEK293T VDR-UAS-bla, beta-lactamase FRET ratio, 16 h; activation: at 63.5 µM (top of the series) unless noted
Sequence of UniProt P11473 (P11473 whole entry, looked up): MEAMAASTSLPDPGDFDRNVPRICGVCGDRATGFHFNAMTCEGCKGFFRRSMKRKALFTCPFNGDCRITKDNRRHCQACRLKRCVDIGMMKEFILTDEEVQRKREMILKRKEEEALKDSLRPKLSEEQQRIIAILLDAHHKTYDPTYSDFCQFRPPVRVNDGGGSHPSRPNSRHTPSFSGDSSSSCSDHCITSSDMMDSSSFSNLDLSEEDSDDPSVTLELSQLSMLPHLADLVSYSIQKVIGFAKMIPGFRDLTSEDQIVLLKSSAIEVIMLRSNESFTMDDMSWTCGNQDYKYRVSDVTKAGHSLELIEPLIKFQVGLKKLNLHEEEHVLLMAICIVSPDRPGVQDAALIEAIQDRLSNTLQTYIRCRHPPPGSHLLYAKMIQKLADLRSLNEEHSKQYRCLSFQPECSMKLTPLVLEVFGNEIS
Outline: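 VDR-bla cells plated 4 h at 37 C, then exposed to compounds for 16 h at 37 C. Beta-lactamase reporter activity measured by fluorescence after 2 h room-temperature loading with LiveBLAzer B/G FRET substrate.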

[13] = qHTS assay to identify small molecule agonists of the vitamin D receptor (VDR) signaling pathway - cell viability counter screen (AID 743224); also: nearly all actives have a fitted effect of over 50% in size
Outline: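 VDR-bla cells, 4 h after plating, exposed to compounds for 16 h at 37C; viability then read in the same wells as CellTiter-Glo luminescence after 30 min at room temperature, following the bla FRET read.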

[14] = qHTS assay to identify small molecule antagonists of the vitamin D receptor (VDR) signaling pathway - cell viability counter screen (AID 743225); details: VDR-bla HEK293T viability, CellTiter-Glo luminescence, 16 h; viability change, negative = cytotoxic: at 61 µM (top of the series) unless noted; also: nearly all actives have a fitted effect of over 50% in size
Outline: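 Cytotoxicity counter screen read by CellTiter-Glo luminescence (30 min, room temperature) in the same wells as the VDR-bla antagonist readout. HEK 293T VDR-UAS-bla cells had 16 h at 37C with compound and 3 nM (final) 1-alpha,25-dihydroxyvitamin D3, then 2 h with FRET substrate.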

[15] = qHTS assay to identify small molecule agonists of the NFkB signaling pathway - cell viability counter screen (AID 1159515; calls by dose curve; also: nearly all actives have a fitted effect of over 55% in size)
Outline: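 NFkB-bla ME-180 cells, 2,000/well, plated overnight at 37 C; compound added for 5 hr at 37 C. Viability read in the same wells as the bla reporter, by CellTiter-Glo luminescence after 30 min at room temperature.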

[16] = qHTS assay to identify small molecule agonists of the endoplasmic reticulum stress response signaling pathway (AID 1159516; active = well fitted activation curve with a large enough effect in the signal ratio in the repeat runs, not every such curve was filed as active; inconclusive = weak or mixed curves, or effect the other way; the % refers to the signal ratio); details: ESRE-bla HeLa, ER stress beta-lactamase reporter, 5 h; activation: at 61 µM (top of the series) unless noted
Outline: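 CellSensor ESRE-bla HeLa cells, 1,500 per well, plated overnight, then exposed to compounds for 5 hr at 37 C. Beta-lactamase reporter read with LiveBLAzer B/G FRET substrate after 2 hr at room temperature, 405 nm excitation, 460 and 530 nm emission.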

[17] = qHTS assay for small molecule agonists of the antioxidant response element (ARE) signaling pathway - cell viability counter screen (AID 743203; calls by dose curve; also: nearly all actives have a fitted effect of over 55% in size)
Outline: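 ARE-bla HepG2 cells were plated, rested 5 h at 37C/5% CO2, then exposed to compounds in DMSO for 16 h. Viability was read as CellTiter-Glo luminescence after 30 min at room temperature, in the same wells as the ARE screen.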

[18] = qHTS assay to identify small molecule agonists of the peroxisome proliferator-activated receptor delta (PPARd) signaling pathway - cell viability counter screen (AID 743211); details: PPARd-bla HEK293H viability, CellTiter-Glo luminescence, 17 h; activity change, negative = cytotoxicity: at 62.6 µM (top of the series) unless noted; also: nearly all actives have a fitted effect of over 55% in size
Outline: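 Viability was measured as CellTiter-Glo luminescence (30 min, room temperature) in the same wells as the beta-lactamase readout. GeneBLAzer PPARd UAS-bla HEK293H cells received compound after 5 h plating and were incubated 17 h at 37 C.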

[19] = molecular target: Vitamin D3 receptor (Homo sapiens) (UniProt P11473); assay: qHTS assay to identify small molecule antagonists of the vitamin D receptor (VDR) signaling pathway (AID 743223; active = well fitted inhibition curve with a large enough effect in the signal ratio in the repeat runs, not every such curve was filed as active; inconclusive = weak or mixed curves, or effect the other way; inactive = no such curve, though single readings can be large or run the other way; the % refers to the signal ratio); details: VDR-UAS-bla HEK293T, beta-lactamase FRET ratio, 16 h; activity change, negative = inhibition: at 61 µM (top of the series) unless noted
Outline: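 Antagonist mode: compound added to VDR-bla cells alongside agonist 1alpha,25-dihydroxyvitamin D3 (3 nM final), incubation 16 h at 37C. Read-out is LiveBLAzer FRET fluorescence, 2 h at room temperature.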
Potency is read from the fitted curve at half-maximal effect; tags tell the direction and shape of the fitted curve or compound fluorescence and quenching.

| SMILES | Potency [1] | Potency [2] | Potency [3] | Potency [4] | Potency [5] | Potency [6] | Potency [7] | Potency [8] | Potency [9] | Potency [10] | Potency [11] | Potency [12] | Potency [13] | Potency [14] | Potency [15] | Potency [16] | Potency [17] | Potency [18] | Potency [19] |
| --- | --- | --- | --- | --- | --- | --- | --- | --- | --- | --- | --- | --- | --- | --- | --- | --- | --- | --- | --- |
| C/C(=C\c1ccccc1)[N+](=O)[O-] | inconclusive [rising, partial curve] | active: 21.9 µM | inconclusive [falling, single point] | inconclusive [cytotoxic, full curve, poor fit] | inconclusive | inconclusive | inconclusive [cytotoxic, single point] | inconclusive [rising, partial curve] | inconclusive [rising, partial curve] | active: 13.8 µM | inconclusive [rising, full curve] | inconclusive [fluorescent, partial curve] | active: 24.5 µM | inconclusive [cytotoxic, single point] | active: 54.9 µM | inconclusive [full curve] |  |  |  |
| CO/C=C(/C(=O)OC)c1ccccc1Oc1cc(Oc2ccccc2C#N)ncn1 | inconclusive | inconclusive [cytotoxic] |  |  |  |  | inconclusive [cytotoxic, partial curve, poor fit] | inconclusive |  | inconclusive |  | inconclusive [fluorescent, full curve] | active: 5.22 µM | inconclusive [cytotoxic] | inconclusive [cytotoxic, partial curve] | inconclusive [rising, partial curve] | inconclusive [rising, full curve, poor fit] | inconclusive [cytotoxic, full curve, poor fit] | inconclusive [fluorescent] |
